Lines with a small IC50 respond at low doses; where the fit passes the top or lowest dose, that dose stands as a limit. AUC sums up the same curve from the lowest dose to the 256-fold higher top dose; the more sensitive the line, the further below 1. Any top dose called inferred comes from the curve model; the source does not state it.
Experiments:
[1] = compound: Nc1[nH]nc2nnc(-c3c(-c4ccccc4)nn4ccccc34)cc12 [FR-180204]; test: Viability of human cancer cell lines after 72 h of drug (GDSC screen); conditions: top dose 20 µM; top dose inferred
Experimental: (§1)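 Human cancer cell lines in 384-well plates, medium with 10% serum, drug for 72 h over a 256-fold dose range (nine 2-fold or five 4-fold steps up to the top dose). Adherent lines were fixed and stained with the nucleic acid dye Syto60, suspension lines read with resazurin; signal relative to control wells, capped at 0 and 100%. One two-parameter sigmoid per drug and line, fitted in a mixed model over all curves with the slope shared within a line.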

[2] = compound: O=C(/C=C/c1cccnc1)NCCCCC1CCN(C(=O)c2ccccc2)CC1 [FK866]; test: as above; conditions: top dose 1 µM; top dose inferred
Experimental: as §1

Row | Cell Line | AUC [1] | IC50 [1] [µM] | AUC [2] | IC50 [2] [µM]
1 | KARPAS-299 (anaplastic large cell lymphoma, suspension) | 0.992 | > 20 | 0.329 | 0.0229
2 | KARPAS-422 (B-cell lymphoma, suspension) | 0.979 | > 20 | 0.129 | 0.00423
3 | KARPAS-620 (haematopoietic neoplasm, suspension) | 0.986 | > 20 | 0.078 | < 0.00391
4 | KCL-22 (chronic myeloid leukaemia, suspension) | 0.961 | > 20 | 0.026 | < 0.00391
5 | KE-37 (lymphoblastic leukaemia, suspension) | 0.971 | > 20 | 0.019 | < 0.00391
6 | KELLY (neuroblastoma, adherent) | 0.946 | > 20 | 0.024 | < 0.00391
7 | KG-1 (acute myeloid leukaemia, suspension) | 0.913 | > 20 | 0.046 | < 0.00391
8 | KGN (ovary, adherent) | 0.971 | > 20 | 0.957 | > 1
9 | KINGS-1 (glioma, adherent) | 0.979 | > 20 | 0.934 | > 1
10 | KLE (endometrium, adherent) | 0.909 | > 20 | 0.844 | > 1
11 | KM12 (large intestine, adherent) | 0.951 | > 20 | 0.79 | 0.488
12 | KM-H2 (Hodgkin lymphoma, suspension) | 0.987 | > 20 | 0.08 | < 0.00391
13 | KMH-2 (thyroid, adherent) | 0.99 | > 20 | 0.98 | > 1
14 | KMOE-2 (acute myeloid leukaemia, suspension) | 0.985 | > 20 | 0.025 | < 0.00391
15 | KMRC-1 (kidney, adherent) | 0.987 | > 20 | 0.884 | > 1
16 | KMRC-20 (kidney, adherent) | 0.989 | > 20 | 0.923 | > 1
17 | KMS-11 (myeloma, suspension) | 0.95 | > 20 | 0.056 | < 0.00391
18 | KNS-42 (glioma, adherent) | 0.976 | > 20 | 0.824 | 0.75
19 | KNS-81-FD (glioma, adherent) | 0.977 | > 20 | 0.891 | > 1
20 | KON (head and neck, adherent) | 0.987 | > 20 | 0.282 | 0.0153
21 | KOPN-8 (B-cell leukaemia, suspension) | 0.956 | > 20 | 0.018 | < 0.00391
22 | KOSC-2 (head and neck, adherent) | 0.985 | > 20 | 0.124 | < 0.00391
23 | KP-2 (pancreas, adherent) | 0.963 | > 20 | 0.8 | 0.531
24 | KP-4 (pancreas, adherent) | 0.987 | > 20 | 0.393 | 0.0321

Row | Cell Line | AUC [1] | IC50 [1] [µM] | AUC [2] | IC50 [2] [µM]
25 | KP-N-YN (neuroblastoma, adherent) | 0.967 | > 20 | 0.039 | < 0.00391
26 | KS-1 (glioma, adherent) | 0.971 | > 20 | 0.759 | 0.431
27 | KU812 (chronic myeloid leukaemia, suspension) | 0.988 | > 20 | 0.15 | 0.00593
28 | KU-19-19 (bladder, adherent) | 0.987 | > 20 | 0.047 | < 0.00391
29 | KURAMOCHI (ovary, adherent) | 0.958 | > 20 | 0.792 | 0.535
30 | KY821 (leukaemia, suspension) | 0.986 | > 20 | 0.986 | > 1
31 | KYAE-1 (oesophagus, suspension) | 0.928 | > 20 | 0.204 | 0.00744
32 | KYM-1 (rhabdomyosarcoma, adherent) | 0.991 | > 20 | 0.124 | 0.00518
33 | KYSE-50 (oesophagus, adherent) | 0.976 | > 20 | 0.989 | > 1
34 | KYSE-70 (oesophagus, adherent) | 0.983 | > 20 | 0.429 | 0.0393
35 | KYSE-180 (oesophagus, adherent) | 0.987 | > 20 | 0.138 | 0.00491
36 | KYSE-220 (oesophagus, adherent) | 0.945 | > 20 | 0.089 | < 0.00391
37 | KYSE-270 (oesophagus, adherent) | 0.96 | > 20 | 0.021 | < 0.00391
38 | KYSE-450 (oesophagus, adherent) | 0.988 | > 20 | 0.973 | > 1
39 | KYSE-510 (oesophagus, adherent) | 0.986 | > 20 | 0.076 | < 0.00391
40 | KYSE-520 (oesophagus, adherent) | 0.982 | > 20 | 0.696 | 0.272
41 | L-363 (myeloma, suspension) | 0.985 | > 20 | 0.241 | 0.0127
42 | L-428 (Hodgkin lymphoma, suspension) | 0.993 | > 20 | 0.126 | 0.00505
43 | L-540 (Hodgkin lymphoma, suspension) | 0.982 | > 20 | 0.07 | < 0.00391
44 | L-1236 (Hodgkin lymphoma, suspension) | 0.988 | > 20 | 0.181 | 0.0085
45 | LAMA-84 (chronic myeloid leukaemia, suspension) | 0.834 | 13.2 | 0.964 | > 1
46 | LAN-6 (neuroblastoma, adherent) | 0.962 | > 20 | 0.64 | 0.165
47 | LB373-MEL-D (melanoma, adherent) | 0.98 | > 20 | 0.907 | > 1
48 | LB771-HNC (head and neck, adherent) | 0.968 | > 20 | 0.632 | 0.158

Row | Cell Line | AUC [1] | IC50 [1] [µM] | AUC [2] | IC50 [2] [µM]
49 | LB831-BLC (bladder, adherent) | 0.981 | > 20 | 0.744 | 0.318
50 | LB996-RCC (kidney, adherent) | 0.978 | > 20 | 0.905 | > 1
51 | LB1047-RCC (kidney, adherent) | 0.974 | > 20 | 0.528 | 0.0754
52 | LB2241-RCC (kidney, adherent) | 0.977 | > 20 | 0.414 | 0.0353
53 | LB2518-MEL (melanoma, adherent) | 0.983 | > 20 | 0.983 | > 1
54 | LC4-1 (lymphoblastic leukaemia, suspension) | 0.959 | > 20 | 0.045 | < 0.00391
55 | LC-1-sq (lung squamous cell carcinoma, adherent) | 0.985 | > 20 | 0.911 | > 1
56 | LC-2-ad (lung adenocarcinoma, adherent) | 0.941 | > 20 | 0.884 | > 1
57 | LCLC-97TM1 (large cell lung carcinoma, adherent) | 0.949 | > 20 | 0.832 | 0.728
58 | LCLC-103H (large cell lung carcinoma, adherent) | 0.983 | > 20 | 0.775 | 0.359
59 | LN-18 (glioma, adherent) | 0.994 | > 20 | 0.48 | 0.0557
60 | LN-229 (glioma, adherent) | 0.971 | > 20 | 0.297 | 0.0168
61 | LN-405 (glioma, adherent) | 0.978 | > 20 | 0.605 | 0.131
62 | LNCaP-Clone-FGC (prostate, adherent) | 0.96 | > 20 | 0.956 | > 1
63 | LNZTA3WT4 (glioma, adherent) | 0.978 | > 20 | 0.331 | 0.0214
64 | LOU-NH91 (lung squamous cell carcinoma, adherent) | 0.978 | > 20 | 0.938 | > 1
65 | LOUCY (T-cell lymphoblastic leukaemia, suspension) | 0.99 | > 20 | 0.018 | < 0.00391
66 | LOXIMVI (melanoma, semi-adherent) | 0.984 | > 20 | 0.255 | 0.0137
67 | LP-1 (myeloma, suspension) | 0.964 | > 20 | 0.137 | 0.00619
68 | LS-123 (large intestine, adherent) | 0.961 | > 20 | 0.731 | 0.359
69 | LS-180 (large intestine, adherent) | 0.98 | > 20 | 0.551 | 0.0877
70 | LS-411N (large intestine, adherent) | 0.928 | > 20 | 0.285 | 0.0133
71 | LS-513 (large intestine, adherent) | 0.936 | > 20 | 0.839 | 0.723
72 | LS-1034 (large intestine, adherent) | 0.955 | > 20 | 0.825 | 0.684
